We go through 57 compounds from article PMC4336329 (PLoS ONE, 2015).

Molecules are shown by their SMILES. Out of some 310,000 compounds screened, about 2,200 (0.71%) showed an effect of 50% or more. The effect is printed as a negative number. The list shows a part of the results.

This experiment deals with human ether-à-go-go-related gene (hERG) potassium channel (human, UniProt Q12809). The experiment is described as follows: primary screen, population patch clamp on CHO cells stably expressing hERG.
Sequence of human ether-à-go-go-related gene (hERG) potassium channel (Q12809 whole entry, looked up): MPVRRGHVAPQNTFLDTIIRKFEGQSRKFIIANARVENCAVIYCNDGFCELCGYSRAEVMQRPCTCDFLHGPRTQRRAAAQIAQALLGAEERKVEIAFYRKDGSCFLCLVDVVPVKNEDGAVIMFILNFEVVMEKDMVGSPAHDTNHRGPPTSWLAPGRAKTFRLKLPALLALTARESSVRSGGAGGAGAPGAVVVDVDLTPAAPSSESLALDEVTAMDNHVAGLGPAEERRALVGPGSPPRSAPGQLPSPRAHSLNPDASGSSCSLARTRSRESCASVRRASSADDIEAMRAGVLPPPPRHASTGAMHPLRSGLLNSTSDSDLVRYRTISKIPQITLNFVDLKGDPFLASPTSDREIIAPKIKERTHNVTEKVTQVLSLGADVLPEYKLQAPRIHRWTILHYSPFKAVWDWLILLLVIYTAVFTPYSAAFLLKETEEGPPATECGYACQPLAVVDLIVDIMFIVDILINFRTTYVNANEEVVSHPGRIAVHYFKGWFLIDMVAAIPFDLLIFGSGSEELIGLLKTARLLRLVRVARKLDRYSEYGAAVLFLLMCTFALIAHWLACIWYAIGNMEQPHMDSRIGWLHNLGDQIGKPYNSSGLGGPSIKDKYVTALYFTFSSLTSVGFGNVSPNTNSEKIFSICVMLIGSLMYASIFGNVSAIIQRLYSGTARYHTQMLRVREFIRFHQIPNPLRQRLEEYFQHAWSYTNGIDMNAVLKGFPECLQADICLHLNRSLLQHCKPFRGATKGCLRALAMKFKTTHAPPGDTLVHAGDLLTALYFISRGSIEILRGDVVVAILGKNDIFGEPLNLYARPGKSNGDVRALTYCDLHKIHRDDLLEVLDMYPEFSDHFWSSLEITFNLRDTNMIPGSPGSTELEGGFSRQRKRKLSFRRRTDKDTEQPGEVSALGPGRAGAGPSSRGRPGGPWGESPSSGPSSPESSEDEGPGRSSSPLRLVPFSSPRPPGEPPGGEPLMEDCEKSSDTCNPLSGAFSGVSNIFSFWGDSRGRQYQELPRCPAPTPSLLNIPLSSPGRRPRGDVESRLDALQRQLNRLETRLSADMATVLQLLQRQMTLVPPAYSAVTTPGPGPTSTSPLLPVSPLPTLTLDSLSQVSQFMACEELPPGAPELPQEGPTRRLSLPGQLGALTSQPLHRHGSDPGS
`C#CCNC(=O)C1=C[C@@H](c2ccc(C#C)cc2)C[C@@H](OCc2ccc(CO)cc2)O1`: the “hERG current change (%, negative = inhibition) at 1uM” value worked out at 10.9%.

Regarding `Cc1ccc(C(=O)Nc2ccn(C)n2)cc1`, the “hERG current change (%, negative = inhibition) at 1uM” value stood at 20.7%. As to `Cc1cccnc1NC(=O)c1cccc(S(=O)(=O)N2CCN(c3ccccc3)CC2)c1`, the “hERG current change (%, negative = inhibition) at 1uM” value is listed as -2.82%. In the case of `C=CCNC(=S)N1CCN(C2CCCCC2)CC1`, the “hERG current change (%, negative = inhibition) at 1uM” value stood at 1.64%. As for `c1ccc(CSc2nnc(-c3cccs3)n2Cc2ccco2)cc1`, the figure is -8.44%; as for `CCC(=O)Nc1c(C)nn(-c2ccc(C)c(C)c2)c1C`, 7.45%. On to `CSc1nc(-c2ccco2)nn1C(=O)c1ccc(C)cc1`, for which the “hERG current change (%, negative = inhibition) at 1uM” value is reported as 6.5%. On to `CCC(=O)Nc1ccc(C(=O)N2CCN(C(=O)c3ccco3)CC2)cc1`, for which the “hERG current change (%, negative = inhibition) at 1uM” value turned out to be 1.93%. As for `O=C(CCC1CCCN(C(=O)C2CCCC2)C1)NCc1ccc(F)c(F)c1` (stereo not drawn), the “hERG current change (%, negative = inhibition) at 1uM” value was determined as 7.69%. For the compound `CCC(=O)Nc1nc2ccc3nc(C)sc3c2s1`, the “hERG current change (%, negative = inhibition) at 1uM” value is recorded as 6.59%.

Regarding `CCOC(=O)C1CCN(C(=O)Cc2cccs2)CC1`, the “hERG current change (%, negative = inhibition) at 1uM” value is listed as -1.77%.

For the compound `CCOP(=O)(C#CC(C)(C)C)C(O)(c1ccccc1)C(F)(F)F` (stereo not drawn), the “hERG current change (%, negative = inhibition) at 1uM” value stood at 4.82%.

As for `NC(=O)c1ccsc1NC(=O)COC(=O)COc1ccccc1F`, the “hERG current change (%, negative = inhibition) at 1uM” value stood at 13.5%. On to `Cc1ccc(OCCOCCOc2ccc(Br)cc2/C=N\NC(=O)c2ccncc2)cc1`, for which the “hERG current change (%, negative = inhibition) at 1uM” value came out at 3.41%. In the case of `Cc1ccc(-c2cc3c(n2-c2ccc(C(=O)O)cc2)CCCC3=O)cc1`, the “hERG current change (%, negative = inhibition) at 1uM” value came to 10.4%. With `Cc1noc(C)c1CSc1ccc(Br)cc1`, the “hERG current change (%, negative = inhibition) at 1uM” value worked out at 12.5%.

With `CCOc1ccc(C(=O)N(CN2CCCC2=O)c2ccc(C)cc2)cc1`, the “hERG current change (%, negative = inhibition) at 1uM” value is on record as -5.23%.

Turning to `Cc1ccccc1/C=N/N1C(=O)CSC1=S`, the “hERG current change (%, negative = inhibition) at 1uM” value came to 15.9%. Consider `Cc1[nH][nH]c(=O)c1C(c1ccc(-c2ccc(F)cc2)o1)c1c(C)[nH][nH]c1=O`, for which the “hERG current change (%, negative = inhibition) at 1uM” value is listed as 17.5%. For the compound `Cc1ccc(/C=N/NS(=O)(=O)c2ccccc2)o1`, the “hERG current change (%, negative = inhibition) at 1uM” value came out at 5.5%. As to `Cc1ccc(Cl)cc1N1CCN(C(=O)C2(S(=O)(=O)c3ccc(Cl)cc3)CC2)CC1`, the “hERG current change (%, negative = inhibition) at 1uM” value stood at 0.696%. Regarding `Cc1onc(-c2c(Cl)cccc2Cl)c1C(=O)NCCc1ccncc1`, the “hERG current change (%, negative = inhibition) at 1uM” value worked out at 1.09%. Regarding `C=CCn1c(SCc2cc(=O)n3ccsc3n2)nc2ccccc2c1=O`, the “hERG current change (%, negative = inhibition) at 1uM” value is on record as 9.84%. As for `COCCCNC(=O)CN(c1cc([N+](=O)[O-])ccc1OC)S(C)(=O)=O`, the figure is 21.6%. Consider `CCOC(OCC)c1cn(Cc2ccc(C(=O)c3ccccc3)cc2)nn1`, for which the “hERG current change (%, negative = inhibition) at 1uM” value is -1.82%. `O=C(/C=C/c1ccc(O)c(O)c1)OCCc1ccccc1`: the “hERG current change (%, negative = inhibition) at 1uM” value came out at 10.3%. As to `CC(C)CCN1CN(S(=O)(=O)c2cccs2)c2nc3ccccc3nc21`, the “hERG current change (%, negative = inhibition) at 1uM” value was determined as 16.3%. As for `Cc1nc2nc(C)c(CCC(=O)N3CCN(c4ccccc4)CC3)c(C)n2n1`, the figure is -23.4%; as for `COc1cccc(-n2c(O)c(C=NCc3ccccn3)c3ccccc3c2=O)c1`, 3.45%; as for `COc1ccc(S(=O)(=O)n2nc(C)c(S(=O)(=O)N3CCOCC3)c2C)cc1OC`, 15.9%.

Take `Cc1cc(C)cc(N(CC(=O)N2CCCCCC2)S(C)(=O)=O)c1`: the “hERG current change (%, negative = inhibition) at 1uM” value is listed as 15.1%. The value for `Cc1ccc(C(=O)NCCONC(=O)c2ccc(C)cc2)cc1` was 14.1%. Consider `COc1cccc(-c2nc(CS(=O)CC(=O)NC3CC3)c(C)o2)c1` (stereo not drawn), for which the “hERG current change (%, negative = inhibition) at 1uM” value was determined as 8.42%. For the compound `CCCCNC(=S)Nc1ccc(SC(F)F)cc1`, the “hERG current change (%, negative = inhibition) at 1uM” value was determined as 4.93%. For `CCCCN(C(=O)COC(=O)CSc1ccc([N+](=O)[O-])cc1)c1c(N)n(CCC)c(=O)[nH]c1=O`, the “hERG current change (%, negative = inhibition) at 1uM” value was determined as 13.3%.

On to `Cc1ccccc1C(=O)Nc1ccc(N2CCCC2)cc1.Cl`, for which the “hERG current change (%, negative = inhibition) at 1uM” value turned out to be 7.79%.

For the compound `CCc1nc(CN(C)C(=O)C2CCC(=O)N(CCc3cccc(F)c3)C2)no1` (stereo not drawn), the “hERG current change (%, negative = inhibition) at 1uM” value is reported as 0.983%. The value for `O=C(c1cc(-c2ccccc2Cl)on1)N1CCCC1` was 5.55%; that for `COc1ccc(C(=O)N/N=C/c2ccc(OC(=O)c3ccccc3)cc2)cc1` was 14.2%; that for `COc1cccc(C2CC(c3ccccc3)=NN2S(=O)(=O)c2ccccc2)c1OC` (stereo not drawn) was 12.7%. The value for `CCOC(=O)c1[nH]c(C)c(C(=O)NC2CCN(C(=O)OCC)CC2)c1C` was 9.39%; that for `CC(NC(=O)c1c(O)c2ccccc2[nH]c1=O)c1ccccc1` (stereo not drawn) was 15.7%; that for `COc1ccc(OC)c(-c2c(=O)n(OCc3ccccc3Br)c3ccccc3[n+]2[O-])c1` was 8.69%.

As to `COc1ccc(/C=N/NC(=O)CCN2CCN(c3ccccc3)CC2)c(OC)c1OC`, the “hERG current change (%, negative = inhibition) at 1uM” value is -2.99%. As for `COc1ccc(CCNC(=O)CC2Nc3ccccc3NC2=O)cc1OC` (stereo not drawn), the figure is 12.7%; as for `O=C(c1ccc2c(c1)OCO2)N1CCC2(CC1)OCCO2`, -3.86%; as for `CCN(CC(=O)Nc1ccc2c(c1)OCCO2)C(=O)C1CC(=O)N(c2ccc(OC)cc2OC)C1` (stereo not drawn), -0.369%. The value for `CCOC(=O)C(NC(=O)NCc1ccc(F)cc1)(OCC)C(F)(F)F` (stereo not drawn) was 11.3%; that for `CCNC(=S)N1CCN(c2nc(-c3cccc(OC)c3)cs2)CC1` was 12.5%; that for `O=C(c1ccc(-c2ccccc2)cc1)C1CCCN(C(=O)Cn2cncn2)C1` (stereo not drawn) was 8.52%. For `O=C(CN1C(=O)NC2(CCOc3ccccc32)C1=O)Nc1ccc2c(c1)OCCO2` (stereo not drawn), the “hERG current change (%, negative = inhibition) at 1uM” value is listed as 10.3%.

On to `O=C(CCN1C(=O)/C(=C/c2ccc3c(c2)OCO3)SC1=S)NNC(=O)c1cccnc1`, for which the “hERG current change (%, negative = inhibition) at 1uM” value is given as 14.1%. Turning to `O=C(N/N=C/c1cccnc1)c1ccc([N+](=O)[O-])cc1`, the “hERG current change (%, negative = inhibition) at 1uM” value was -5.8%.

In the case of `CCc1ccc(CN2CCC(n3nccc3NC(=O)c3ccc4c(c3)OCO4)CC2)cc1`, the “hERG current change (%, negative = inhibition) at 1uM” value is -58.4%. For `CCOc1cc(C(=O)NC)cc(Br)c1OC`, the “hERG current change (%, negative = inhibition) at 1uM” value was 11.7%. With `Cc1ccc2c(c1)-c1nc3ccccc3cc1C2=NC1CCCCC1`, the “hERG current change (%, negative = inhibition) at 1uM” value was 17.3%.

Turning to `CS(=O)(=O)N1CCN(C(=O)c2ccc(-c3ccccc3)cc2)CC1`, the “hERG current change (%, negative = inhibition) at 1uM” value was 9.18%.
